In the supplement of paper PMC3334620:
Whole data set: some 33,000 sequences, median “E-score (-0.5 to 0.5)” near -0.011, cut for the highest 2% near 0.28. Some of the results follow.

These sequences were tested against T1, Gcr1 (UniProt P07261) (assay: PBM E-score (8-mer binding enrichment) (E-score (-0.5 to 0.5)); higher = stronger / more preferred TF binding; most listed sequences are background and not binding sites). Details: protein concentration: 100 nM; construct: GST-full length.
T1 sequence: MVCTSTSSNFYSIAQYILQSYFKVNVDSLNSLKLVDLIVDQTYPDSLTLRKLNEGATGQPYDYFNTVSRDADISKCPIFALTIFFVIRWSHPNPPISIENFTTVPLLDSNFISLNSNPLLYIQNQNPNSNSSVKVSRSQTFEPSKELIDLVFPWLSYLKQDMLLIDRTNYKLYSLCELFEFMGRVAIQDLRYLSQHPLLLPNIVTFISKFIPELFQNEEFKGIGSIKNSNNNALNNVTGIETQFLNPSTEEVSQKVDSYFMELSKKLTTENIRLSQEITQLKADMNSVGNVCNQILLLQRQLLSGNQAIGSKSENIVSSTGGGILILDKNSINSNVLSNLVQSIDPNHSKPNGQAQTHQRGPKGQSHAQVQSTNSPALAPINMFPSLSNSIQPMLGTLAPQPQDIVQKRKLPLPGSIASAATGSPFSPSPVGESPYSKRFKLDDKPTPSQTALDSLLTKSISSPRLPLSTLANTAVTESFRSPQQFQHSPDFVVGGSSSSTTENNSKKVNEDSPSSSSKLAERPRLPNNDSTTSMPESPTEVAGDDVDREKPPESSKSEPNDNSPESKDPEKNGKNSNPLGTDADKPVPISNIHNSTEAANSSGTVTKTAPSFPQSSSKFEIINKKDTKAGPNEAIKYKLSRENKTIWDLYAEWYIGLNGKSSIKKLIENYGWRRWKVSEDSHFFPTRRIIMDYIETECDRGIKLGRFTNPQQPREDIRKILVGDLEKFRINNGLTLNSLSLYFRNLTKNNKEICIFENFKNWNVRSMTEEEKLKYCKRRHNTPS
Method in brief: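 GST-tagged yeast TFs (full-length or DNA-binding domain) were made by PURExpress in vitro transcription/translation and applied at about 100-200 nM to universal all-10-mer Agilent arrays. The arrays were made double-stranded by primer extension, on fresh or once-stripped slides. Bound protein was detected with fluorescent anti-GST, and scans were normalised with masliner. Each ungapped eight-base word, pooled with its reverse complement, received an E-score (modified Wilcoxon-Mann-Whitney statistic) from the Universal PBM Analysis Suite.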

Row | Sequence | PBM E-score
1 | GATCGCAA | -0.0291
2 | GGCAGTTA | 0.061
3 | CAACGGCA | -0.104
4 | CCCGCAGC | 0.194
5 | GGGAAATA | -0.104
6 | CTATCTGC | -0.0457
7 | GCCACGTA | 0.159
8 | CAGCTACG | 0.123
9 | GACAGATA | 0.0132
10 | GTCATTAA | 0.0346
11 | AAATGAAC | -0.0469
12 | CGCGGTCC | -0.283
13 | CATGCTTC | -0.107
14 | CGAGCAAA | -0.108
15 | AAACCGCG | -0.0566
16 | CCGAGATA | 0.0614
17 | CAGACGAA | 0.188
18 | CGCTTCGA | -0.0778
19 | GGCCAGAA | -0.0131
20 | ACTACTTA | 0.148
21 | TCCCGGGA | 0.271
22 | CTCTGGAA | 0.256
23 | ACAACAAA | -0.0593
24 | CCTCGGCA | -0.217
25 | CTTGCTTC | -0.0756

Row | Sequence | PBM E-score
26 | AGTTCATA | 0.104
27 | GTCACAAC | -0.0653
28 | GCGAGGAC | -0.271
29 | CGACGGAA | 0.0253
30 | GCGCCTGA | 0.171
31 | CACTGGAC | 0.0576
32 | ATAGGGAT | 0.035
33 | AAGCACCG | 0.0663
34 | ATGGAAAT | 0.131
35 | GGCAGCGA | 0.0747
36 | GGGATACA | 0.189
37 | ACCGAGGC | -0.259
38 | GGTCTCGA | -0.1
39 | GACGGTCA | -0.282
40 | CTCCGGAC | -0.0074
41 | AACGCGCG | -0.0701
42 | CCACACAC | 0.18
43 | AGAAATCA | -0.0355
44 | CCCCTAGA | -0.0902
45 | GATGATGC | 0.0601
46 | GTGCCATA | -0.132
47 | GCTAAGCC | -0.193
48 | CCGCGTAG | -0.0306
49 | TAACGCAA | 0.184
50 | CCGTCCAG | -0.095

Row | Sequence | PBM E-score
51 | GGAACCAA | 0.31
52 | GATCCCCC | 0.176
53 | AAGAGTGG | 0.108
54 | GGATACTA | 0.265
55 | ACACAGGC | 0.0795
56 | GAACGTTA | -0.161
57 | ATCTAAAG | -0.118
58 | AGTTGCCG | 0.16
59 | CCGTTCAG | 0.0825
60 | CTTAGGCC | -0.331
61 | ACGTCTAA | 0.22
62 | CCTTTTCG | -0.0678
63 | CGCTAGCC | -0.209
64 | CTCCTCAA | 0.00872
65 | CCGATATA | 0.109
66 | GTTCCCAA | 0.145
67 | CTCCCCAA | 0.0917
68 | AATTATTA | 0.228
69 | CATTACGG | -0.107
70 | GGTCTAGA | 0.0412
71 | GCGCATAC | 0.0321
72 | CACGGTAA | -0.233
73 | GCGCAACC | -0.0761
74 | CGCAACAC | 0.0549
75 | CTATTGGA | 0.237

Row | Sequence | PBM E-score
76 | CTAGGGAA | 0.0131
77 | CTCGACAC | -0.144
78 | AAGTCGGG | -0.0158
79 | GACTTTGA | -0.102
80 | CCCAGTGA | 0.0204
81 | ATAATATC | 0.0896
82 | CGTTGGTA | -0.0272
83 | CCCAGTTA | 0.0016
84 | CACATGTA | -0.0101
85 | ACCGCCCG | -0.25
86 | CTGTATTA | 0.188
87 | AGTCTCAT | -0.212
88 | TATTAGCA | 0.194
89 | GTCACCGA | 0.065
90 | GGATAGTA | -0.0553
91 | CTGATTAC | 0.027
92 | ACATGCAC | -0.0191
93 | GACAGCCC | -0.173
94 | CCGTAGGC | -0.271
95 | AACCAGAC | -0.0315
96 | CCATCTGC | 0.156
97 | GCCAAATA | 0.0694
98 | GTGGTGCA | -0.107
99 | GCCGATCC | -0.168
100 | CCCCATCG | 0.00426

Row | Sequence | PBM E-score
101 | ATACGGCC | -0.151
102 | CGGACATA | -0.0746
103 | GGTCGATA | -0.135
104 | CGACTCCA | 0.0419
105 | GAGATGAC | -0.26
106 | GAGCATCC | 0.398
107 | CGCAATAC | 0.108
108 | GTGTGGTA | 0.0549
109 | GTGCTCGA | -0.0883
110 | AAACGCAA | -0.0505
111 | AGTGCAAC | -0.119
112 | GCGAGCAC | -0.124
113 | GCTCAAAC | -0.0452
114 | AGTCGCAT | -0.0858
115 | ATTATGAA | 0.152
116 | GCTTCACA | -0.0209
117 | AATCTCAG | 0.0955
118 | ACTTCTTG | 0.133
119 | CTGGTGGC | 0.0573
120 | CGCTAGTA | 0.00429
121 | GATGTCGC | 0.0876
122 | GATTGGGA | 0.103
123 | CTCATACC | 0.0158
124 | AAACGTCC | -0.0501
125 | CCGCCCCG | 0.243

Row | Sequence | PBM E-score
126 | ATAAAATA | 0.236
127 | CGTTTTCA | -0.0253
128 | GTGTTCGA | -0.0345
129 | GCGGCTAC | 0.155
130 | CGTCTACC | 0.0358
131 | ACTGCCTG | -0.0454
132 | ACGTGAAT | -0.0556
133 | AACGTACG | -0.19
134 | CGCTCACG | 0.0795
135 | AAGTAGAT | 0.204
136 | ACGATGCG | 0.0696
137 | CGTGAATC | 0.0163
138 | GGTCCAGA | -0.0324
139 | ATCTTGAC | -0.00526
140 | AATTGGCA | 0.0395
141 | AGGGGTTC | 0.0309
142 | CCAGTACA | 0.061
143 | GAACGGTA | -0.359
144 | AGGTGGAC | -0.29
145 | GTTCCGCA | 0.16
146 | AAATTAGT | 0.193
147 | AAAAGCCG | -0.0544
148 | ACGCAGCC | 0.304
149 | GAGGCAGA | -0.153
150 | CAATTAAC | 0.0449

Row | Sequence | PBM E-score
151 | CCCGCCGG | 0.0392
152 | ACGTAGTC | -0.247
153 | CCGCGCAC | 0.11
154 | AATCAAAA | 0.00059
155 | AGCCGTAT | -0.0395
156 | GACCGGCC | -0.105
157 | ATTTTGCA | -0.0454
158 | CCAGTGCC | -0.0625
159 | GCCGGCGA | 0.0912
160 | CCTATAAA | 0.227
161 | CGGGAAAA | -0.0339
162 | CAGATTAG | 0.0596
163 | TAACTTCA | 0.0443
164 | CTGTTGTA | 0.149
165 | AAAGAACA | -0.0499
166 | GGGAGCCC | 0.226
167 | AACATTTA | 0.00541
168 | AGCCATGA | -0.0623
169 | AGCGGAAG | 0.262
170 | AGAGATAT | -0.065
171 | AGTGAAGA | 0.084
172 | GAGTGCAC | -0.225
